Measurements published in PubChem BioAssay AID651820 (National Center for Advancing Translational Sciences (NCATS), 2012).
The campaign covered roughly 340,000 compounds. About 12,000 (3.5%) were called active. The shares of active, inactive and inconclusive entries below differ from those in the screen. The call rests on the fitted dose curve; in most records, active means well fitted inhibition curve with a large enough effect; inconclusive means small, poorly fitted or top-dose-only effect, or another doubt; inactive means no such curve, though single readings can be large or run the other way. Potencies of inconclusive entries are left out as doubtful fits.
On the % scale 0 is the no-effect control and ±100 the full control effect; potency means the concentration at half of the fitted maximal effect; tags describe the fitted curve by direction and shape.

Assay: qHTS Assay for Inhibitors of Hepatitis C Virus (HCV)
Conditions: Huh7.5.1 HCVcc-Cre (HCVcc is cell-culture hepatitis C virus) infection, luciferase reporter, 44 h; activity change, negative = inhibition: at 41.8 µM (top of the series) unless noted
Method in brief: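 Luciferase read-out (15 sec integration) after a 15 min room-temperature substrate step quantifies HCVcc-Cre infection. Cells, 1,000 per well, had compound added 4 h post-plating, then virus at ~0.5 moi, and were cultured 44 h.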
In the case of CCN(CC)c1ccc(/C=C/c2ccc3ccc(OC)cc3[n+]2CC)cc1, the Potency is reported as active: 2.24 µM. For COc1ccc(CCn2c(C)cc(C(=O)COC(=O)c3ccc(NC(=O)CC#N)cc3)c2C)cc1, the Potency was “inactive”. With CN(C)c1ccc(C(=S)N2CCN(Cc3ccccc3)CC2)cc1 the Potency was “inactive”. For COc1cc2c(Cc3ccccc3)cncc2cc1O, the Potency was inconclusive [inhibitor, single point]. In the case of COc1cc(/C=N/N(CCO)C2=NS(=O)(=O)c3ccccc32)cc(OC)c1OC, the Potency is reported as inconclusive [inhibitor, single point]. With COc1ccc(NS(=O)(=O)c2ccc(C)c(C(=O)NNC(=O)c3csc(N4CCOCC4)n3)c2)cc1 the activity change, negative = inhibition was inconclusive: -66.1% [inhibitor]. In the case of Cc1cc(Nc2c(C)n(C)n(-c3ccccc3)c2=O)n2c(nc3cc(F)c(F)cc32)c1C#N, the Potency is reported as inconclusive [inhibitor, full curve]. For CC(C)c1nnc(NC(=O)c2cccs2)s1, the Potency was inconclusive [inhibitor, single point]. With Clc1ccc(NCc2cccnc2)c(Cl)c1 the Potency was inconclusive [inhibitor, partial curve]. For COc1ccc(N2CC(C(=O)N[C@@H](C)C(=O)NC3CCCCC3)CC2=O)cc1 (some centres undefined), the Potency was “inactive”. With COc1ccc(NC(=O)c2cc(-c3ccccc3)nc3c2cnn3C(C)C)c(OC)c1 the Potency was inconclusive [inhibitor, partial curve]. In the case of Cc1cc(SCC(=O)N/N=C/c2ccc(O)c(O)c2)nc2ccccc12, the Potency is reported as inconclusive [inhibitor, single point]. With Cc1ccc(CN2CCN(/N=C/c3ccc(Cl)c([N+](=O)[O-])c3)CC2)cc1 the Potency was inconclusive [inhibitor, single point]. With CNc1cc(N2CCCCCC2)ccc1[N+](=O)[O-] the Potency was “inactive”. With COC(=O)C1=C(C)NC(=O)NC1c1ccc(N2CCC(c3ccccc3)=N2)cc1 (centres undefined) the Potency was inconclusive [inhibitor, partial curve]. For Cc1ccc(NC(=O)CCCCCN2C(=O)[C@@H]3Cc4ccccc4CN3C2=O)c(C)c1, the Potency was inconclusive [inhibitor, single point]. For Cc1cc(N(CCCl)CCCl)ccc1C=NNC(=O)c1cccnc1, the Potency was inconclusive [inhibitor, full curve]. For CCCCNC(=O)N1CCOCCOCCN(C(=O)NCCCC)CCOCC1, the Potency was “inactive”. In the case of COc1ccc(Cl)cc1C(=O)Nc1ccc2c(c1)OCCO2, the Potency is reported as inconclusive [inhibitor, partial curve].
